Measurements taken from paper PMC6919601, “Identification of Plasmodium dipeptidyl aminopeptidase allosteric inhibitors by high throughput screening” (PLoS ONE, 2019).
Hit rate of the full screen: of about 110,000 compounds, about 230 (0.21%) showed an effect of 50% or more. Some of the results follow.
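Further: 30 min substrate incubation versus DMSO and 10 µM JCP410 controls.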

These molecules were tested against DPAP1 (Plasmodium falciparum, UniProt Q8IIJ9) (assay: primary screen, percent inhibition; read by cleavage of a fluorogenic dipeptide substrate; higher = more effect of the substance).
Chain of DPAP1 (Q8IIJ9 whole entry, looked up): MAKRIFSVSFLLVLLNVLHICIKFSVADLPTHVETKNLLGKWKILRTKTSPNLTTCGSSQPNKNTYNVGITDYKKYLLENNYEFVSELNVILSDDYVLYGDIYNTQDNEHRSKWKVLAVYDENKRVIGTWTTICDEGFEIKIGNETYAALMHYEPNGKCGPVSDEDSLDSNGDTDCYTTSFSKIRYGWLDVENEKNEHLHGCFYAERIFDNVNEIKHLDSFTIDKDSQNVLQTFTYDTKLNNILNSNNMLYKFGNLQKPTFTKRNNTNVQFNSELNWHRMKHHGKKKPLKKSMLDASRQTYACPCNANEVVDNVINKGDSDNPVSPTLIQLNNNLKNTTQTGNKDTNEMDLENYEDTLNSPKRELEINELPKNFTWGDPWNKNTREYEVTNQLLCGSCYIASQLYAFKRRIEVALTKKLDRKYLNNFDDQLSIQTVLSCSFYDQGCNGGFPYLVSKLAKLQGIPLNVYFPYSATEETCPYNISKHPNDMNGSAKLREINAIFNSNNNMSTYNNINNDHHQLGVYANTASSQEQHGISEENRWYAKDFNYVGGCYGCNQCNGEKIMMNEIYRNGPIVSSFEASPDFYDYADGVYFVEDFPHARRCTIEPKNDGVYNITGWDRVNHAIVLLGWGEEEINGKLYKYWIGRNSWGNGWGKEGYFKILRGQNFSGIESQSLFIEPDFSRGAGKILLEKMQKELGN
Design: species or system P. falciparum D10 trophozoite lysates; single well
In the case of CCSc1nnc(NC(=O)CSc2nc3ccccc3[nH]2)s1, the “% Inhibition @ 10 uM” value is reported as 3.39%. With CCCC(=O)NCCc1nc2ccccc2n1CCC the “% Inhibition @ 10 uM” value was 3.41%. With CC(Oc1ccccc1)C(=O)Nc1cccc(NC(=O)C(C)Oc2ccccc2)n1 (stereo not shown) the “% Inhibition @ 10 uM” value was 0.843%. In the case of COc1ccc2c(c1)CCc1c(C(=O)Nc3cc(C)nn3-c3ccccc3)noc1-2, the “% Inhibition @ 10 uM” value is reported as 1.82%. COc1ccc(N2CCN(C(=O)CCn3cc(Br)cn3)CC2)cc1 was tested, and the “% Inhibition @ 10 uM” value was -2.09%. In the case of CCCc1cc(O)n2nc(-c3ccccc3)nc2n1, the “% Inhibition @ 10 uM” value is reported as 1%. In the case of Cc1ccc(C2Nc3cccc4cccc(c34)N2)s1, the “% Inhibition @ 10 uM” value is reported as -7.27%. Cc1ccn2cc(CNC(=O)c3ccccc3C(F)(F)F)nc2c1 was tested, and the “% Inhibition @ 10 uM” value was -3.51%. For O=C(C1CCNCC1)N1CCN(Cc2ccc3c(c2)OCO3)CC1, the “% Inhibition @ 10 uM” value was -4.78%. For O/N=C/c1ccc(OCc2ccccc2)cc1, the “% Inhibition @ 10 uM” value was 6.18%. CC1=C(C#N)C(c2ccc(O)cc2)C2=C(O)CC(C)(C)CC2=N1 (stereo not shown) was tested, and the “% Inhibition @ 10 uM” value was -0.305%. For O=C1c2ccccc2C(=O)N1c1ccccc1[N+](=O)[O-], the “% Inhibition @ 10 uM” value was -2.77%. In the case of CCO/C(O)=C(\C#N)c1ncc(-c2ccccc2)cn1, the “% Inhibition @ 10 uM” value is reported as 2.55%. With CCOc1ccc(CNC(=O)Cn2ncn3c(cc4cc(F)ccc43)c2=O)cc1 the “% Inhibition @ 10 uM” value was 0.0198%. With CCOCCCNc1oc(/C=C/c2ccccc2OC)nc1C#N the “% Inhibition @ 10 uM” value was -0.808%. With O=C(ON1C(=O)c2ccccc2C1=O)c1cccs1 the “% Inhibition @ 10 uM” value was 45.3%. In the case of N#Cc1ccc(-c2cccnc2)nc1SCc1ccccc1, the “% Inhibition @ 10 uM” value is reported as 61.4%. In the case of Cc1ccc2c(CNCCc3ccccc3C)c(C(=O)O)n(Cc3ccccc3C)c2c1, the “% Inhibition @ 10 uM” value is reported as -0.356%. In the case of COc1ccc(Cn2c(SCc3cc(=O)n4ccccc4n3)nc3ncccc3c2=O)cc1, the “% Inhibition @ 10 uM” value is reported as -3.44%. With CN(C)c1ccc(/N=c2/sc3ccccc3n2C)cc1 the “% Inhibition @ 10 uM” value was -3.71%. In the case of O=[N+]([O-])c1ccccc1-c1nc(-c2ccccc2)nc2ccccc12, the “% Inhibition @ 10 uM” value is reported as -0.687%. OC(c1ccccc1)(c1ccccc1)C1CCN(c2ccc3nnc(-c4ccccc4)n3n2)CC1 was tested, and the “% Inhibition @ 10 uM” value was -4.85%. In the case of CCCCCCNS(=O)(=O)c1ccc(C)c([N+](=O)[O-])c1, the “% Inhibition @ 10 uM” value is reported as -0.807%. In the case of CC(NC(=O)c1ccccc1)c1nc2ccccc2n1Cc1ccccc1F (stereo not shown), the “% Inhibition @ 10 uM” value is reported as 3.49%. In the case of Cc1c(C(c2ccccc2F)c2c(C)n(C)n(-c3ccccc3)c2=O)c(=O)n(-c2ccccc2)n1C, the “% Inhibition @ 10 uM” value is reported as -1.25%. In the case of CC(C(=O)O)c1cccc2c1sc1ccccc12 (stereo not shown), the “% Inhibition @ 10 uM” value is reported as 10.2%. For COc1ccc(CCN(C)Cc2ccccc2C(F)(F)F)cc1OC, the “% Inhibition @ 10 uM” value was 3.85%. In the case of C=CC1(O)CCN(S(=O)(=O)c2ccccc2)c2cc(OC)ccc21 (stereo not shown), the “% Inhibition @ 10 uM” value is reported as 0.408%. For O=C(Nc1ccc(S(=O)(=O)NC2CCCCC2)cc1)c1cccs1, the “% Inhibition @ 10 uM” value was -12.5%. In the case of c1ccc2c(c1)CCN(Cc1ccc3c(c1)OCO3)C2, the “% Inhibition @ 10 uM” value is reported as 3.1%. CCOC(=O)C1=C(C)OC(N)=C(C#N)C1c1ccc(Cl)cc1 (stereo not shown) was tested, and the “% Inhibition @ 10 uM” value was -0.197%. COC(=O)C1=C(N)Oc2cc(C)n(Cc3ccccc3)c(=O)c2C1c1ccccc1Cl (stereo not shown) was tested, and the “% Inhibition @ 10 uM” value was -1.11%. In the case of O=S(=O)(Nc1ccc(Br)cc1F)c1cccc(C(F)(F)F)c1, the “% Inhibition @ 10 uM” value is reported as -7.33%. For CCN1CCCC1CNC(=O)CS(=O)(=O)Cc1nc(-c2ccc(C)cc2)oc1C (stereo not shown), the “% Inhibition @ 10 uM” value was -1.89%. CCS(=O)(=O)C1=NSC2=NC(=O)/C(=C\c3ccc(-c4cccc(Cl)c4)o3)C(=N)N21 was tested, and the “% Inhibition @ 10 uM” value was 5.06%. For Cc1ccc(SCCc2ccccn2)cc1, the “% Inhibition @ 10 uM” value was -3.14%. In the case of COc1cc(OC)cc(-n2nnc(-c3nsc(NC(=O)c4ccc(C)c(C)c4)n3)c2C)c1, the “% Inhibition @ 10 uM” value is reported as -4.94%. O=C(Nc1cccnc1)c1nc(-c2ccc(Cl)cc2)n2c1CCCCC2 was tested, and the “% Inhibition @ 10 uM” value was 4.17%. CN1CCN(C)CC(OC(c2ccccc2)c2ccccc2)C1 was tested, and the “% Inhibition @ 10 uM” value was -0.312%. CCCCN/C=C1/C(=O)NC(=S)N(c2ccccc2C)C1=O was tested, and the “% Inhibition @ 10 uM” value was 5.68%. For CN(C)c1ccc(C(O)c2nccn2C)cc1 (stereo not shown), the “% Inhibition @ 10 uM” value was 3.22%. For CC(=O)NS(=O)(=O)c1cnccc1Sc1cccc(C(F)(F)F)c1, the “% Inhibition @ 10 uM” value was -3.56%. With O=C(c1ccco1)N1CCN(C2CCC(c3ccccc3)CC2)CC1 (stereo not shown) the “% Inhibition @ 10 uM” value was -0.274%. In the case of Cc1c(C(=O)N(C)Cc2ccccc2)sc2ncn(CC(=O)N3CCCCC3)c(=O)c12, the “% Inhibition @ 10 uM” value is reported as -0.458%. In the case of CCOC(=O)c1sc(NC(=O)c2cncc(Br)c2)nc1C, the “% Inhibition @ 10 uM” value is reported as 3.66%. O=C(O)c1nccnc1C(=O)Nc1ccc(Br)cn1 was tested, and the “% Inhibition @ 10 uM” value was 0.66%. For CCC(O)c1ccc(OCc2ccc(C(=O)OC)o2)c(OC)c1 (stereo not shown), the “% Inhibition @ 10 uM” value was 0.413%. In the case of OC1(c2ccc(Cl)cc2)CCN(Cc2cccc(Cl)c2Cl)CC1, the “% Inhibition @ 10 uM” value is reported as -3.5%. CC(C)(CO)NC(=O)c1ccc(-c2ccccc2)cc1 was tested, and the “% Inhibition @ 10 uM” value was 0.843%. With Cc1ccc(C(=O)N[C@@H](CC2CCCCC2)C(=O)NCC#N)cc1 the “% Inhibition @ 10 uM” value was -5.21%. With CCOC(=O)c1c(C)n(-c2ccc(Br)cc2)c2ccc(OC)cc12 the “% Inhibition @ 10 uM” value was -0.467%. CCOC(=O)c1[nH]c(C)c(C(=O)NC2CCCC(C)C2C)c1C (stereo not shown) was tested, and the “% Inhibition @ 10 uM” value was -4.68%. For Cc1cccn2c(=O)c(/C=C(\C#N)c3nc4ccccc4[nH]3)c(Oc3ccccc3)nc12, the “% Inhibition @ 10 uM” value was -1.43%. In the case of Cc1ccc2c(CC(=O)Nc3nc(C)c(C(=O)OCC(C)C)s3)coc2c1C, the “% Inhibition @ 10 uM” value is reported as -2.4%. With C=CCc1cccc2cc(C(=O)NCc3ccco3)c(=O)oc12 the “% Inhibition @ 10 uM” value was -4.77%. CCCC(=O)N1CCN(Cc2ccccc2)CC1 was tested, and the “% Inhibition @ 10 uM” value was -4.59%. CN(C)c1nc2ccc(OCCN3CCOCC3)cc2s1 was tested, and the “% Inhibition @ 10 uM” value was 0.266%. With CC(C)(CNC(=O)Cc1ccccc1)CNC(=O)Cc1ccccc1 the “% Inhibition @ 10 uM” value was 0.389%. COc1cc(C2C(C#N)=C(N)OC3=C2C(=O)CC(C)(C)C3)cc(OC)c1OC (stereo not shown) was tested, and the “% Inhibition @ 10 uM” value was 2.38%. In the case of COc1ccc(S(=O)(=O)NCc2ccc(C(=O)N(C)Cc3ccco3)cc2)cc1, the “% Inhibition @ 10 uM” value is reported as -5.22%. For CCCCCO/C(O)=C1/C(C)=Nc2ncnn2C1c1cc(Br)ccc1OC (stereo not shown), the “% Inhibition @ 10 uM” value was -3.85%. With COc1cccc(CN2CCN(Cc3cc(OC)ccc3OC)CC2)c1 the “% Inhibition @ 10 uM” value was 3.93%. With COC(=O)c1ccc(CSc2nc3ccncc3n2Cc2ccc(C)cc2)cc1 the “% Inhibition @ 10 uM” value was -3.34%. Cc1nc2sccn2c(=O)c1S(=O)(=O)NCc1ccc2c(c1)OCO2 was tested, and the “% Inhibition @ 10 uM” value was 4.95%.
